# According to PubChem BioAssay AID504832 (National Center for Advancing Translational Sciences (NCATS), 2011):
# The campaign covered roughly 310,000 compounds. About 18,000 (5.8%) were called active. The inconclusive results got no clear call from the source; some entries with a clear call stand among them for comparison. Calls come from the whole dose curve; as a rule, active = well fitted inhibition curve with a large enough effect; inconclusive = small, poorly fitted or top-dose-only effect, or another doubt; inactive = no such curve, though single readings can be large or run the other way. Potencies of inconclusive entries are left out as doubtful fits.
# Test: Primary qHTS for delayed death inhibitors of the malarial parasite plastid, 48 hour incubation
# Conditions: P. falciparum luciferase growth in erythrocytes; series mostly up to 28.7 µM; activity change, negative = inhibition: at the top concentration
# In short: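 Here the parasites carry a stable luciferase gene and grow inside erythrocytes in Albumax-based RPMI medium with compound for one erythrocytic cycle. Activity is scored as loss of luminescent signal.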
# % is set by controls: 0 for no effect and ±100 for the full control effect; potency is the fitted concentration of half-maximal effect; tags give direction and shape of the fitted curve.
Compound,Potency,"activity change, negative = inhibition"
COc1ccc(/C=N/NC(=O)c2nc(Cl)c(Cl)c(N)c2Cl)cc1COc1ccccc1F,"inconclusive [inhibitor, single point]",
O=C(NCc1cccs1)c1ccc([N+](=O)[O-])cc1,,inactive: 12.4%
CC(=O)NC1C(=O)N(CCN2CCOCC2)c2ccc(Cl)cc21 (configuration not stated),"inconclusive [inhibitor, single point]",
O=C(NCCC(c1ccccc1)c1ccccc1)c1cccs1,"inconclusive [inhibitor, partial curve, poor fit]",
CCOc1ccccc1OCC(=O)Nc1nc2ccccc2[nH]1,,inactive: 6.07%
Cc1ccc(-n2c(SCC(=O)NCc3ccco3)nnc2-c2cccnc2)c(C)c1,"inconclusive [inhibitor, full curve, poor fit]",
CCN(CC)CCC(c1cc(OC)c(OC)c(OC)c1)c1c(OC)cc(OC)c2ccc(=O)oc12 (configuration not stated),"inconclusive [inhibitor, partial curve]",
CCCn1c(C(C)NC(=O)c2ccccc2)n[nH]c1=S (configuration not stated),"inconclusive [inhibitor, full curve]",
CN1CCN(C(=O)CSc2nnc(COc3ccc(Cl)cc3)o2)CC1,"inconclusive [inhibitor, partial curve, poor fit]",
Cc1cc(C)n2nc(C(=O)OCC(=O)NCc3ccc(Cl)cc3)nc2n1,,inactive: 33.6%
Nc1ccn([C@@H]2O[C@H](CO)[C@H](O)C2(F)F)c(=O)n1,active: 1.9 µM,
CC(=O)c1cc(NC(=O)c2ccc([N+](=O)[O-])cc2)c(=O)oc1C,,inactive: -13.4%
O=C(NC1CCSC1)c1cccc(Cl)c1 (configuration not stated),,inactive: -12%
Cc1cc(=O)n(CCc2ccccc2)c(O)c1C#N,,inactive: -4.46%
Cc1cc(C)n(-c2nc(NCCN(C)C)c3c4c(sc3n2)COC(C)(C)C4)n1,"inconclusive [inhibitor, single point]",
O=C(O)c1ccc2c(c1)C(=O)N([C@H](Cc1ccc(Cl)cc1)C(=O)O)C2=O,"inconclusive [inhibitor, single point]",
COC(=O)c1ccc2c(=O)n(CCN3CCOCC3)c(SCC(=O)C(C)(C)C)nc2c1,"inconclusive [inhibitor, single point]",
CCOc1ccc(CN2C(=O)c3ccccc3C2=O)cc1C(=O)NC1CC(C)(C)NC(C)(C)C1,"inconclusive [inhibitor, single point]",
O=C(N/N=C/c1ccc(Cl)c([N+](=O)[O-])c1)c1ccc2nc[nH]c2c1,active: 3.29 µM,
O=C(NNC(=O)c1ccc2ccccc2n1)c1ccc(O)cc1,"inconclusive [inhibitor, single point]",
Cc1cc(C)cc(OCC(=O)Nc2ccc(CN3CCCCC3)cc2)c1,active: 11.7 µM,
COc1ccc(CN2C(=O)C(Cc3ccccc3)Nc3ncnc(N4CCN(c5ccccc5)CC4)c32)cc1 (configuration not stated),active: 2.62 µM,
COc1ccc(Cl)cc1NC(=O)NCC1CCN(Cc2ccccc2F)CC1,"inconclusive [inhibitor, single point]",
CCCCOc1ccc(-c2c(C(=O)Nc3ccccc3)c(C)[nH]c(=S)c2C#N)cc1,"inconclusive [inhibitor, partial curve]",

Compound,Potency,"activity change, negative = inhibition"
Cc1ccc(SC[C@H](Cc2ccccc2)N2CC[C@@H](C)CCC2=O)cc1,"inconclusive [inhibitor, partial curve, poor fit]",
CCC(C(=O)OCC(=O)NC1CCS(=O)(=O)C1)c1ccccc1 (configuration not stated),,inactive: -16%
CCCN(CCC)C(=O)c1ccc2nc(-c3ccc(OC)c(OC)c3)c(-c3ccc(OC)c(OC)c3)nc2c1,active: 7.38 µM,
Cc1cc(C)cc(SCc2noc(C(=O)NCc3ccccc3)c2C(=O)NCc2ccccc2)c1,,inactive: 0%
COc1cc(OC)c(NC(=S)Nc2cccc(C(C)=O)c2)cc1Cl,"inconclusive [inhibitor, partial curve, poor fit]",
Cn1cnc([N+](=O)[O-])c1Sc1n[nH]c(N)n1,"inconclusive [inhibitor, single point]",
C#CCN1CCN(c2cccc(C(F)(F)F)c2)CC1,,inactive: 35.2%
COc1cccc(CN2C[C@]34C=C[C@@H](C[C@@H]3S2(=O)=O)O4)c1,,inactive: 49%
C=CCn1c(SCC(=O)Nc2ccccc2C)nc2sc(C)c(C)c2c1=O,"inconclusive [inhibitor, single point]",
CC(C)C[C@@H]1NC(=O)[C@H](Cc2ccc(O)cc2)NC(=O)c2cc([N+](=O)[O-])cc(I)c2NCCC[C@@H](C(N)=O)NC1=O,"inconclusive [inhibitor, partial curve]",
COc1cc(C(=O)N/N=C/C2CC=CCC2)cc(OC)c1OC (configuration not stated),,inactive: 6.99%
CC(=O)/C(N=Nc1ccc(C(=O)O)cc1[N+](=O)[O-])=C(\C)O,,inactive: 30.3%
O=C(NCc1ccco1)C(=O)c1c[nH]c2ccccc12,,inactive: 19%
Cc1ccc(N=Nc2c(=O)[nH]n3c(C)cc(C)nc23)cc1,"inconclusive [inhibitor, partial curve, poor fit]",
CN(Cc1ccco1)S(=O)(=O)c1nnc(NC(=O)c2cccc(Cl)c2)s1,,inactive: 24.5%
O=C(COc1ccccc1F)Nc1cc(S(=O)(=O)N2CCOCC2)ccc1N1CCOCC1,active: 11.7 µM,
Nc1cc(S(=O)(=O)N2CCCCC2)ccc1Oc1ccccc1,,inactive: 7.68%
Cc1cc(OC(=O)C(C)(C)C)c([N+](=O)[O-])c(=O)[nH]1,,inactive: -2.88%
Cc1ccccc1-n1c(-c2ccco2)nc2ccccc2c1=O,"inconclusive [inhibitor, partial curve]",
COc1cc(CC(C#N)(CO)c2nc3ccccc3[nH]2)ccc1OC(F)F (configuration not stated),"inconclusive [inhibitor, single point]",
COc1cc(CN2CCCC(CO)(Cc3cccc(Cl)c3)C2)cc(OC)c1O (configuration not stated),"inconclusive [inhibitor, single point]",
CCOc1ccc(N/C=C/C(=O)c2ccc(C)cc2)c([N+](=O)[O-])c1,,inactive: 138%
CC(Oc1cc(-c2ccccc2)cc2ccccc12)C(=O)N1CCOCC1 (configuration not stated),"inconclusive [inhibitor, single point]",
CCn1c2ccccc2c2cc(NC(=O)CSc3nnnn3-c3ccccc3)ccc21,"inconclusive [inhibitor, partial curve, poor fit]",

Compound,Potency,"activity change, negative = inhibition"
O=C(c1cc(S(=O)(=O)N2CCCCC2)ccc1F)N1CCCCC1,active: 2.33 µM,
CCOc1cc(/C=N/Nc2nc(-c3cccs3)c(NC(C)=O)s2)ccc1O,"inconclusive [inhibitor, single point]",
Cc1ccc(OCC(=O)NNC(=O)c2ccc3c(=O)n4c(nc3c2)CCC4)cc1,"inconclusive [inhibitor, single point]",
C#CCOc1ccccc1/C=N/NC(=O)c1ccccc1OCc1ccccc1,"inconclusive [inhibitor, single point]",
C=CCOc1ccccc1CNc1cccc(F)c1,,inactive: -1.52%
Cc1cc(Cl)ccc1OCCCC(=O)N1CCN(S(=O)(=O)c2ccccc2)CC1,"inconclusive [inhibitor, single point]",
CC(C(=O)Nc1ccc2[nH]c(=O)[nH]c2c1)N1CCN(Cc2ccc3c(c2)OCO3)CC1 (configuration not stated),,inactive: -21.2%
CCc1ccc(CN2CCC(Oc3ccc(C(=O)NCc4ccccn4)cc3)CC2)o1,"inconclusive [inhibitor, single point]",
CCCCCOC(=O)Cn1c(=O)oc2ccccc21,,inactive: 1.57%
COc1ccc(C)cc1S(=O)(=O)NC1CCCCC1C (configuration not stated),"inconclusive [inhibitor, partial curve]",
O=C(CC1SC(=Nc2ccccc2)N(Cc2ccccn2)C1=O)Nc1cccc(Cl)c1 (configuration not stated),active: 6.57 µM,
CCOC(=O)N1CCC(NC(=O)c2ccc3c(c2)N=C(C)c2ccccc2S3)CC1,"inconclusive [inhibitor, single point]",
COc1ccc(C)cc1NC(=O)C(c1ccccc1)N1CCN(CC(=O)N2CCCC2)CC1 (configuration not stated),active: 11.7 µM,
Cc1ccc(OCC(=O)Nc2cccc(S(=O)(=O)N3CCOCC3)c2)c([N+](=O)[O-])n1,"inconclusive [inhibitor, single point]",
COc1ccc(C(=O)Nc2ccc(S(=O)(=O)N3CCCC3)cc2)cc1[N+](=O)[O-],"inconclusive [inhibitor, single point]",
Cc1csc(NC(=O)CN2C(=O)c3ccccc3S2(=O)=O)n1,,inactive: 16.1%
COCCN1C=C2C(=O)C(C)(OC(=O)CCC(=O)OC)C(=O)C=C2C=C1C1CC1 (configuration not stated),,inactive: 36%
Cc1cc(-c2csc(N)n2)c(C)n1CCc1ccccc1,"inconclusive [inhibitor, single point]",
Cc1cc2ccccc2nc1SCC(=O)NC1CCCC1,,inactive: 5.56%
Cc1noc(C)c1COc1ccccc1C(=O)NCCc1ccc(Cl)cc1,"inconclusive [inhibitor, single point]",
COC(=O)c1c(NC(=O)CN2C(=O)c3ccccc3C2=O)sc(Cc2ccc3c(c2)OCO3)c1C,,inactive: 11.1%
CC(OC(=O)CCN=C1NS(=O)(=O)c2ccccc21)C(=O)N(C)c1ccccc1 (configuration not stated),"inconclusive [inhibitor, single point]",
COc1cccc(C2Nc3cccc4cccc(c34)N2)c1,"inconclusive [inhibitor, single point]",
CC(=O)N1CCCc2cc(S(=O)(=O)N3CCCC(C(=O)N4CCN(c5cc(C)ccc5C)CC4)C3)ccc21 (configuration not stated),"inconclusive [inhibitor, partial curve]",
